Results taken from PubChem BioAssay AID360 (National Center for Advancing Translational Sciences (NCATS), 2006).
Hit rate of the full screen: of about 48,000 compounds, about 550 (1.1%) were called active. Inconclusive results (about 4%) are left out. Rule as the data show it: active = potency below about 15 µM; inconclusive = mostly about 16 µM to 33 µM; inactive = weaker than that. Some of the results follow.

The molecules below were run against Lysosomal acid glucosylceramidase (Homo sapiens) (UniProt P04062) (assay: Glucocerebrosidase). Conditions: purified enzyme, resorufin glucoside fluorescence (screen aimed at inhibitors), 20 min.
In short: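 Compounds titrated against 0.2 nM normal enzyme, 30 uM resorufin beta-D-glucopyranoside substrate, citrate/phosphate buffer with taurocholate and tween-20, pH 5.9. Reaction ran 20 min at room temperature; fluorescence (Ex 548/Em 600) gave AC50.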
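Also: the screen sought inhibitors.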
Potency is read from the fitted curve at half-maximal effect.

UniProt P04062, sequence (P04062 whole entry, looked up): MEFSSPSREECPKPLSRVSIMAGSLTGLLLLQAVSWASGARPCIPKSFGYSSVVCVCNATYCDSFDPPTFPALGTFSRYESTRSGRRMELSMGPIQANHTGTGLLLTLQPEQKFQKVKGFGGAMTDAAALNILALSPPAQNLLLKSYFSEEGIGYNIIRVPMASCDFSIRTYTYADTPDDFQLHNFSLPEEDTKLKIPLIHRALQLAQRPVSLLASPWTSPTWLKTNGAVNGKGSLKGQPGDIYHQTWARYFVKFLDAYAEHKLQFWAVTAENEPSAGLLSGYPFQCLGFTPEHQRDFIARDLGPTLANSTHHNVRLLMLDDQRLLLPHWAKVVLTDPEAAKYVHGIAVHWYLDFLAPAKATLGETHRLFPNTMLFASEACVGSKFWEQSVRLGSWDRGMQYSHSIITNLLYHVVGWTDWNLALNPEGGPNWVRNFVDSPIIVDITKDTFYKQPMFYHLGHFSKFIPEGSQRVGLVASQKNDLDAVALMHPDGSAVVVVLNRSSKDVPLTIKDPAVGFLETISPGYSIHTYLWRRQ

Potency, inactive:
Cc1cccc2cc(CN(Cc3ccco3)C(=O)N3CCCC3)c(=O)[nH]c12 > 76.9 µM, Cc1cccc(C)c1N1C(=O)CC(N(O)c2ccccc2)C1=O (stereo not drawn) > 76.9 µM, CCOc1ccc(OCC)c(NC(=O)CSc2nnc(-c3cccnc3)o2)c1 > 76.9 µM, Cc1nc2n(n1)C(c1ccccc1)C1=C(CC(c3ccco3)CC1=O)N2 (stereo not drawn), COc1cc(C(=O)CSc2nncn2C)cc(OC)c1OC > 76.9 µM, Cn1c2ccccc2c2cc(C(=O)OCC(=O)N3CC(=O)Nc4ccccc43)sc21 > 76.9 µM, Cc1ccnc(SCCn2c(N3CCOCC3)nc3c2c(=O)n(C)c(=O)n3C)n1 > 76.9 µM, Cc1cc(C)nc(-n2nc(C)c3c(C(F)F)cc(C)nc32)n1 > 76.9 µM, O=C(CSc1nnc(CNC(=O)c2ccco2)o1)c1ccccc1 > 76.9 µM, COc1cc([C@H]2[C@@H]3CCCC[C@]3(O)CCN2CC(=O)Nc2ccc(C)cc2)ccc1O > 76.9 µM, CC1(C)SC2c3ccccc3C(=O)N2[C@@H]1C(=O)NCCCN1CCOCC1 (stereo partly drawn) > 76.9 µM, COC(=O)[C@H](C)NC(=O)Nc1ccc(C)c(C)c1 > 76.9 µM, CCCCn1c(NC(=O)c2ccc(F)cc2)c(C#N)c2nc3ccccc3nc21 > 76.9 µM, COc1ccc(-c2nn(C)c3sc(C(=O)N4CCOCC4)cc23)cc1OC > 76.9 µM, COc1ccc(OCC(=O)Nc2cccc(NC(=O)COc3ccc(OC)cc3)n2)cc1 > 76.9 µM, O=C(OCc1ccccc1)Oc1cncc(C(=O)O)c1 > 76.9 µM, O=C(CCCN1C(=O)c2ccccc2C1=O)Nc1ccccn1 > 76.9 µM, COc1ccccc1NC(=O)CSc1nnc(C)n1Cc1ccccc1 > 76.9 µM, CCC(=NCCN1CCNCC1)C1=C(O)CC(C)(C)CC1=O > 76.9 µM, C/C(N)=C(\C#N)C(=O)NCc1ccccn1 > 76.9 µM, COc1ccc2sc(NC(=O)c3ccco3)nc2c1 > 76.9 µM, O=C(Cn1nnc(-c2ccccc2)n1)NCc1ccccc1 > 76.9 µM, O=C(O)c1cc2c(s1)-c1ccccc1OC2 > 76.9 µM, CCOC(=O)c1oc2ccccc2c1NC(=O)CN1CCN(C)CC1 > 76.9 µM, Cn1cccc1C(=O)NC(=O)CSc1nnc(C2CC2)n1-c1ccccc1 > 76.9 µM, CC1=C(C(=O)Nc2ccc(F)cc2)C(c2ccncc2)C2=C(CCCC2=O)N1 (stereo not drawn) > 76.9 µM, C=C(C)COc1ccc(-c2nc(N)ncc2Oc2ccccc2OCC)c(O)c1 > 76.9 µM, O=C(NC1CCCCC1)N1CCCC(c2nc(-c3ccc(S(=O)(=O)N4CCCC4)cc3)no2)C1 (stereo not drawn) > 76.9 µM, CCOC(=O)C(Cc1c[nH]c2ccccc12)NC(=O)CNC(C)=O (stereo not drawn) > 76.9 µM, CCCCc1ccc(NC(=O)N[C@H](C(=O)O)C(C)CC)cc1 (stereo partly drawn) > 76.9 µM, CCCSC1=C(C#N)C(c2ccccc2C)CC(=O)N1 (stereo not drawn) > 76.9 µM, COC(=O)c1ccccc1NS(=O)(=O)c1ccc(F)cc1 > 76.9 µM, COc1ccc(S(=O)(=O)N2CCCC(C(=O)NC3CCCCC3)C2)cc1 (stereo not drawn) > 76.9 µM, CCC(=O)N1CCN(c2nc(C)nc3sc(C)c(C)c23)CC1 > 76.9 µM, COC(=O)CNC(=O)CCCCC(=O)NCC(=O)OC > 76.9 µM, O=C(CN1CCN(S(=O)(=O)c2ccc(Br)cc2)CC1)Nc1ccc(F)cc1F > 76.9 µM, CC1CN(Cc2nc3c(c(=O)n(C)c(=O)n3C)n2CCN2CCOCC2)CC(C)O1 (stereo not drawn) > 76.9 µM, COc1ccc(-n2c(SCC(=O)OC(C)C)nnc2-c2ccccn2)cc1 > 76.9 µM, Cc1c(C(=O)O)c2cc(O)ccc2n1-c1ccccc1 > 76.9 µM, O=C(O)CCc1ccc(-c2cccs2)n1NC(=O)c1ccco1 > 76.9 µM, CCOc1cc(C(=O)Nc2cc(C)on2)cc(OCC)c1OCC > 76.9 µM, CCOC(=O)N1CCN(C(=O)C2CCC(CNS(=O)(=O)c3ccccc3)CC2)CC1 (stereo not drawn) > 76.9 µM, O=C(c1ccc2c(c1)c(=O)oc1ccccc12)N1CCCCC1 > 76.9 µM, CSc1nnc([C@@H](NC(=O)OC(C)(C)C)C(C)C)o1 > 76.9 µM, COC(=O)Nc1ccc(S(=O)(=O)Nc2ccccc2F)cc1 > 76.9 µM, Cc1ccc(O)c(C(=O)c2cnc3c(c2)CN(CCC(C)C)C(=O)N3)c1 > 76.9 µM, COc1cc2c(cc1OC)CN(C(=O)CSc1nnc(C)s1)CC2 > 76.9 µM, Cc1csc2c(C#N)c(=O)c3c(n12)CCC3 > 76.9 µM, COC(=O)c1sc(=S)n(-c2cccc(Cl)c2)c1N, CCOC(=O)c1[nH]c(C)c(C(=O)NCCCN2CCOCC2)c1C > 76.9 µM, CCCCCOc1ccc(N2C(=O)CC(N(O)c3ccccc3)C2=O)cc1 (stereo not drawn) > 76.9 µM, Cc1cc2nc(-c3ccc(SCC(=O)N4CCOCC4)nc3)[nH]c2cc1C > 76.9 µM, O=C1C2CCCN2C(c2ccccc2)N1c1nccs1 (stereo not drawn) > 76.9 µM, Cc1ccc(CN2CC34C=CC(O3)C(C(=O)NCc3ccc5c(c3)OCO5)C4C2=O)cc1 (stereo not drawn) > 76.9 µM, O=C(O)CSCCCC(=O)Nc1ccc(Br)cc1 > 76.9 µM, CCn1c(NCCc2ccc(OC)c(OC)c2)nc2c1c(=O)n(C)c(=O)n2C > 76.9 µM, O=C1N2CCSC2=NC1(Nc1nccs1)C(F)(F)F (stereo not drawn) > 76.9 µM, O=C(O)CCC(=O)Nc1ccc(N2CCOCC2)cc1 > 76.9 µM
